Source: PubChem BioAssay AID624417 (National Center for Advancing Translational Sciences (NCATS), 2012)
Among all 410,000 compounds or so, about 6,400 (1.6%) were called active. The shares of active, inactive and inconclusive entries below differ from those in the screen. Calls follow the shape of the dose curve; as a rule, active = well fitted inhibition curve with a large enough effect; inconclusive = small, poorly fitted or top-dose-only effect; inactive = no such curve, though single readings can be large or run the other way. No potency is given beside an inconclusive call; the fits are too rough.

molecular target: Glucagon-like peptide 1 receptor (Homo sapiens) (UniProt P43220); assay: qHTS of GLP-1 Receptor Inverse Agonists (Inhibition Mode); details: HEK293 GLP-1R CRE-luciferase, luminescence, 24 h, GLP-1R form is constitutively active; activity change, negative = inhibition: at 38.3 µM (top of the series) unless noted; also: nearly all actives have a fitted effect of over 55% in size
In short: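 Seeding at 200 cells/uL, 12 h culture, 24 hr compound treatment, then luciferase reagent and a luminescence read; cells are HEK293 stably expressing a constitutively active GLP-1R plus cAMP-responsive luciferase.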
% is scaled to controls: 0 for no effect and ±100 for the full control effect; potency is read from the fitted curve at half-maximal effect; tags tell the direction and shape of the fitted curve.

Chain of UniProt P43220 (P43220 whole entry, looked up): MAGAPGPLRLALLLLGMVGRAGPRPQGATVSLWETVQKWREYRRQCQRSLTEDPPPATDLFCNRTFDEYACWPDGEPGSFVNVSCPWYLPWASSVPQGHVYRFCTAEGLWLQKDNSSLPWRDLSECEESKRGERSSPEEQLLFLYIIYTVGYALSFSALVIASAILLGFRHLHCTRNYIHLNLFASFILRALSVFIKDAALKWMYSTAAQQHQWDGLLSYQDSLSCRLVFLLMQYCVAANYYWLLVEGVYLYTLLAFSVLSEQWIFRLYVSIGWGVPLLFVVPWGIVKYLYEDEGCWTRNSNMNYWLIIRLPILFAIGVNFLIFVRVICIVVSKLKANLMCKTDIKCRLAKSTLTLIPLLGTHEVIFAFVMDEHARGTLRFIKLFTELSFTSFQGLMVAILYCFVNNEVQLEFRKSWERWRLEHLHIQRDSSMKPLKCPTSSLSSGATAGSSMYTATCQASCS

SMILES | Potency | activity change, negative = inhibition
Cc1cccc(-c2nnc(-c3cccc(NC(=O)Cc4cccs4)c3)o2)c1 | inconclusive [inhibitor, single point] | –
CCNc1ccc(S(=O)(=O)N(C)C)cc1NCC(=O)Nc1ccc(Br)cc1F | inconclusive [inhibitor, single point] | –
CC(=O)Nc1cccc(-c2ccnc3c2CC(C)(C(=O)NCc2ccco2)O3)c1 (configuration not stated) | inconclusive [inhibitor, full curve, poor fit] | –
CC[C@@]12C(=O)N(c3cccc(F)c3)C(=O)N1[C@H](c1ccc(F)cc1)[C@@H]1C(=O)N(C3CCCCC3)C(=O)[C@@H]12 | inconclusive [inhibitor, partial curve, poor fit] | –
O=C(NCc1ccc(Cl)cc1)N1CCN(S(=O)(=O)c2ccccc2)CC1 | inconclusive [inhibitor, partial curve] | –
CC(C)=CCSc1nnc([C@@H](NC(=O)OC(C)(C)C)C(C)C)o1 | inconclusive [inhibitor, single point] | –
COc1ccc(/C=N\NC(=O)c2ccccc2Cl)cc1COc1c(F)c(F)c(F)c(F)c1F | inconclusive [inhibitor, single point] | –
COc1ccc(CCN2C(=O)CSC2=Nc2ccc(C(C)C)cc2)cc1OC | inconclusive [inhibitor, partial curve, poor fit] | –
COC(=O)[C@]12CCCCC=C1N(Cc1ccccc1)C(=O)[C@H](CC(=O)NCCCCc1ccccc1)C2 | inconclusive [inhibitor, single point] | –
COc1ccc(CNC(=S)N/N=C/c2ccc(OC)c(OC)c2)cc1 | – | inactive: -3.02%
CC(C)(C)OC(=O)N1CCN(C(=O)c2[nH]cnc2C(=O)N[C@@H](Cc2ccccc2)C(=O)OCc2ccccc2)CC1 | – | inactive: 1.33%
CCn1c(CN2CCN(c3ccc(Cl)cc3)CC2)nc2ccccc21 | inconclusive [inhibitor, partial curve, poor fit] | –
CCCOc1ccc(CCCN=C(N)N)cc1Cl | inconclusive [inhibitor, partial curve, poor fit] | –
CC(=O)C1=C(Nc2ccccc2)CC(C)(O)C(C(C)=O)C1c1ccccc1 (configuration not stated) | inconclusive [inhibitor, single point] | –
COc1ccc(-c2nc3scc(CCNS(=O)(=O)c4ccc5c(c4)OCCO5)n3n2)cc1OC | – | inactive: 19.8%
COc1ccc(NC(=O)CCC2CCCCC2)cc1S(=O)(=O)N1CCCCC1 | inconclusive [inhibitor, single point] | –
CN1CCN(c2ccc(CNC(=O)C3Cc4c(-c5cccc(F)c5)ccnc4O3)cc2)CC1 (configuration not stated) | – | inactive: -0.917%
COc1cccc(NC(=O)N2CCCC2C(=O)NC2CCCCC2)c1 (configuration not stated) | – | inactive: -19.9%
NS(=O)(=O)c1ccc(Nc2nc(-c3ccc(F)cc3)cs2)cc1 | inconclusive [inhibitor, single point] | –
CC1=C(C(=O)N2CCCCCC2)CC(CC(=O)NCCCCc2ccccc2)C(=O)N1CCC1=CCCCC1 (configuration not stated) | inconclusive [inhibitor, single point] | –
O=C(CN1C(=O)NC2(CCCCCC2)C1=O)Nc1ccc(Br)cc1Br | inconclusive [inhibitor, single point] | –

SMILES | Potency | activity change, negative = inhibition
Cc1ccc(S(N)(=O)=O)cc1NC(=O)C(c1ccccc1)c1ccccc1 | – | inactive: 19.8%
O=C(Nc1cc(C(F)(F)F)ccc1Cl)C(Sc1cccc[n+]1[O-])c1ccccc1 (configuration not stated) | inconclusive [inhibitor, partial curve, poor fit] | –
CC1CC(C)(C)CC2(C1)NC(=O)N(CC(=O)N1CCN(S(=O)(=O)c3cccs3)CC1)C2=O (configuration not stated) | inconclusive [inhibitor, partial curve, poor fit] | –
CC(=O)c1cccc(NC(=O)CNC(=O)Cc2cccc3ccccc23)c1 | inconclusive [inhibitor, partial curve, poor fit] | –
CN(C(=O)c1ccc(Cl)cc1)C1CCS(=O)(=O)C1 (configuration not stated) | – | inactive: 6.41%
COc1ccc(N2CCN(C(=O)CSc3nc(-c4ccc(C(C)C)cc4)no3)CC2)cc1 | – | inactive: -10.6%
Cc1ccc2sc(N(Cc3cccnc3)C(=O)CCS(=O)(=O)c3ccccc3)nc2c1C | – | inactive: -12%
CCN(CC)C(=O)c1sc2c(c1C)c(=O)n(Cc1ccccc1)c(=O)n2Cc1ccccc1C | active: 11.2 µM | –
CC(=O)c1cccc(NC(=O)Nc2sc3nc4n(c(=O)c3c2C)CCC(C)CC4)c1 (configuration not stated) | inconclusive [inhibitor, partial curve, poor fit] | –
COc1ccccc1N/N=C/c1ccc2c(c1)OCO2 | inconclusive [inhibitor, partial curve, poor fit] | –
COC(=O)C1C(=O)C2=C(CC1C)NC(C)=C(C(=O)OCCOc1ccccc1)C2c1ccc(C)o1 (configuration not stated) | active: 11.2 µM | –
Cc1csc(SCC(=O)Nc2ccc(F)cc2Cl)n1 | inconclusive [inhibitor, single point] | –
CC(Cc1cccs1)NC(=S)Nc1ccc(F)cc1 (configuration not stated) | inconclusive [inhibitor, partial curve] | –
Cc1ccc(NC(=O)CSc2ncccn2)c([N+](=O)[O-])c1 | – | inactive: 16.3%
CCCN1CCC(=O)N([C@H](CSc2ccc(Br)cc2)c2ccccc2)CC1 | – | inactive: -14.7%
Cc1ccccc1-n1c(SCC(=O)Nc2ccccc2Cl)nc2n[nH]c(C)c2c1=N | – | inactive: 60.2%
COc1ccc(CC(=O)Nc2cc(S(=O)(=O)N3CCCC3)ccc2Cl)c(OC)c1 | inconclusive [inhibitor, single point] | –
CC(C)COc1cccc(-c2cc(C(=O)N/N=C/c3ccncc3)c3ccccc3n2)c1 | – | inactive: -28.7%
Nc1ncnc2c1ncn2[C@@H]1O[C@H](C(=O)N2CCSC2)[C@@H](O)[C@H]1O | – | inactive: 0.629%
CCN(C(=O)c1ccc2c(SCC(=O)O)c3c(nc2c1)CCC3)c1cc(Cl)ccc1OC | – | inactive: -17.7%
CC(=O)c1cc2c(cc1N(C(=O)Cn1nnc3ccccc31)C(C(=O)NCCC(C)C)c1cccnc1)OCO2 (configuration not stated) | inconclusive [inhibitor, single point] | –
